Data on 153 variants can be found in a collection of fitness landscapes (doi:10.1126/science.1257360).

The chains are these.
B1: PhoQ; a variant is named by its letters at X, in order, P23837 (parent)
chain: MKKLLRLFFPLSLRVRFLLATAAVVLVLSLAYGMVALIGYSVSFDKTTFRLLRGESNLFYTLAKWENNKLHVELPENIDKQSPTMTLIYDENGQLLWAQRDVPWLMKMIQPDWLKSNGFHEIEADVNDTSLLLSGDHSIQQQLQEVREDDDDAEMTHSVAVNVYPATSRMPKLTIVVVDTIPVELKSSYMVWSWFIYVLSANLLLVIPLLWVAAWWSLRPIEALAKEVRELEEHNRELLNPATTRELTSLVRNLNRLLKSERERYDKYRTTLTDLTHSLKTPLXXLQXXLRSLRSEKMSVSDAEPVMLEQISRISQQIGYYLHRASMRGGTLLSRELHPVAPLLDNLTSALNKVYQRKGVNISLDISPEISFVGEQNDFVEVMGNVLDNACKYCLEFVEISARQTDEHLYIVVEDDGPGIPLSKREVIFDRGQRVDTLRPGQGVGLAVAREITEQYEGKIVAGESMLGGARMEVIFGRQHSAPKDE

This is one part of the list.

This assay covers variants of B1. As to the kind of experiment: enrichment ratio after two sorts for PhoP signalling (ratio (wild type AVST 3.29)); higher = more functional. The following applies: with PhoP (E. coli).
With YLGC, the enrichment ratio is not above 0.25.

On to EQRR, for which the enrichment ratio was not above 0.25.

For the variant RARF, the enrichment ratio is not above 0.25. The figure for GMHA is not above 0.25. The same measure for TSRL: not above 0.25. The same measure for NFGC: not above 0.25; for YKCI: 0.57. Consider IQYW, for which the enrichment ratio is not above 0.25.

As to EICW, the enrichment ratio was not above 0.25.

Consider QMCH, for which the enrichment ratio was not above 0.25. The same measure for YKVG: 1.94; for LNRW: not above 0.25. The figure for WRMG is not above 0.25; for MAGL it is 8.15. Take ASIT: the enrichment ratio turned out to be 9.21. The same measure for RLYP: not above 0.25; for FVRR: not above 0.25. For the variant PGPG, the enrichment ratio was not above 0.25. HNNL: the enrichment ratio was not above 0.25.

With LCPV, the enrichment ratio was not above 0.25. For the variant SWGT, the enrichment ratio is not above 0.25. The figure for KMGH is not above 0.25; for LDVQ it is not above 0.25; for NQHD it is not above 0.25.

For the variant ICTF, the enrichment ratio is not above 0.25. As for KVNF, the enrichment ratio was not above 0.25.

Turning to LICI, the enrichment ratio is not above 0.25. For HFWD, the enrichment ratio was not above 0.25.

Regarding YCPG, the enrichment ratio is not above 0.25. Consider IMEM, for which the enrichment ratio is not above 0.25. The same measure for IPHN: not above 0.25; for YFME: not above 0.25.

On to TEIC, for which the enrichment ratio is 2.01. The figure for RCLL is 0.331; for TRHA it is not above 0.25; for HLYN it is not above 0.25. For the variant AKHG, the enrichment ratio is not above 0.25. The figure for PMWS is not above 0.25; for PTAY it is not above 0.25. As for VDGQ, the enrichment ratio is not above 0.25. As to VQYL, the enrichment ratio was not above 0.25. The same measure for YGLR: not above 0.25. The same measure for QSTV: 0.636. Turning to WFYW, the enrichment ratio is not above 0.25. The same measure for HKRS: not above 0.25. The same measure for AQTK: not above 0.25.

Take FFML: the enrichment ratio is not above 0.25. As to MHAM, the enrichment ratio is not above 0.25. Take TCCF: the enrichment ratio came to 7.22.

Regarding PDRV, the enrichment ratio is not above 0.25.

As to ICIN, the enrichment ratio was not above 0.25. Take HYCF: the enrichment ratio was not above 0.25. The figure for IGVL is not above 0.25. The figure for GFWQ is not above 0.25.

On to EPFM, for which the enrichment ratio is not above 0.25. The same measure for NDSQ: not above 0.25; for RMIW: not above 0.25; for FQFV: not above 0.25. The figure for PKNC is not above 0.25; for GACR it is not above 0.25; for ADIQ it is 21.4. The figure for AEQY is 17.1; for HYGE it is not above 0.25; for SPVD it is not above 0.25. As to GGTS, the enrichment ratio was not above 0.25. The same measure for ECQG: not above 0.25. GSSI: the enrichment ratio worked out at 14.1.

PACN: the enrichment ratio was not above 0.25.

For FFMH, the enrichment ratio is not above 0.25. The figure for EYTY is not above 0.25. The figure for SRLS is not above 0.25; for YPNA it is not above 0.25. The same measure for AYMN: not above 0.25; for ENIV: not above 0.25; for PFTS: not above 0.25. For the variant RMTT, the enrichment ratio is not above 0.25.

For VNLP, the enrichment ratio was not above 0.25.

With TPFG, the enrichment ratio was not above 0.25. The figure for IAIV is not above 0.25; for GSQF it is not above 0.25; for MSDW it is not above 0.25. With DGLK, the enrichment ratio was not above 0.25. QGQR: the enrichment ratio was not above 0.25.

Consider VHWN, for which the enrichment ratio was not above 0.25. The figure for QVGG is 2.44; for YDDA it is not above 0.25. The figure for PINF is not above 0.25; for TEHQ it is 0.877; for RGDV it is not above 0.25. With LMWH, the enrichment ratio is not above 0.25.

On to MPCH, for which the enrichment ratio is not above 0.25. The same measure for SYFA: not above 0.25. For LGRQ, the enrichment ratio was not above 0.25. The same measure for YSVE: not above 0.25; for EVCA: not above 0.25. The figure for FPGQ is not above 0.25; for GLYP it is not above 0.25; for SGSA it is 7.85. The figure for ADDF is not above 0.25; for IRTI it is not above 0.25.

Regarding MRTC, the enrichment ratio is not above 0.25.

On to FAVF, for which the enrichment ratio is not above 0.25. As for TCWD, the enrichment ratio was not above 0.25. The figure for SRCH is 2.77.

Take IRWQ: the enrichment ratio is not above 0.25. With VNCL, the enrichment ratio was 4.33. Consider NGPR, for which the enrichment ratio was not above 0.25. Take GEFR: the enrichment ratio is not above 0.25. For the variant SRDP, the enrichment ratio was not above 0.25. The figure for MSDL is not above 0.25. As for MAIS, the enrichment ratio was not above 0.25. The figure for TMFL is not above 0.25; for RDVI it is not above 0.25. As to LPNE, the enrichment ratio is not above 0.25. The same measure for ANKW: not above 0.25. For the variant IQSF, the enrichment ratio is not above 0.25. Consider CMRL, for which the enrichment ratio is not above 0.25. The figure for IFYK is not above 0.25; for NEFN it is not above 0.25.

As to KTPG, the enrichment ratio was not above 0.25.

Regarding VTMF, the enrichment ratio was determined as 1.14. Turning to LKIM, the enrichment ratio was not above 0.25. The same measure for KCHK: not above 0.25; for LPAG: not above 0.25; for KIEA: not above 0.25.

Take ILLC: the enrichment ratio is not above 0.25. The figure for NTTW is not above 0.25.

For the variant NRGP, the enrichment ratio stood at 0.361. Turning to QWLW, the enrichment ratio is not above 0.25.

Turning to LTKS, the enrichment ratio was not above 0.25. In the case of PLGW, the enrichment ratio is not above 0.25.

Consider KQWP, for which the enrichment ratio is not above 0.25. In the case of MTRD, the enrichment ratio is not above 0.25. The same measure for VHTD: not above 0.25. Regarding KAMV, the enrichment ratio was not above 0.25. Consider YQTH, for which the enrichment ratio was not above 0.25. Regarding HQFC, the enrichment ratio was not above 0.25.

Consider LFGR, for which the enrichment ratio is not above 0.25.

GYRM: the enrichment ratio was not above 0.25. The figure for IWGT is not above 0.25; for LEHW it is not above 0.25. The figure for AKAP is not above 0.25; for TGCR it is not above 0.25; for YFAD it is not above 0.25. For LPWW, the enrichment ratio is not above 0.25. The figure for SEMS is 14.3; for TPMW it is not above 0.25. With IPAE, the enrichment ratio was not above 0.25. With LRYT, the enrichment ratio is not above 0.25. On to ICWF, for which the enrichment ratio was not above 0.25.

Consider AERH, for which the enrichment ratio was not above 0.25. The same measure for EGLM: not above 0.25; for GAWR: not above 0.25.
